Results as given in article PMC3334886.
Results are given in words; binding and its absence hold for the method and conditions named. In cells and extracts the contact can be indirect. Some entries that bind do so weakly or less than the wild type. For part of these data: Tags and fused reporters may be left off the sequences shown. One block for each binder: values may come before it.

Tests used:
[1] = target: Nlrp1b1_(1086–1233) (mouse) (UniProt Q2LKW6); assay: co-IP; HA- and T7-tagged copies co-expressed in HT1080 cells; lysed in EBC buffer (50 mM Tris pH 8, 150 mM NaCl, 0.5% NP-40) by sonication; anti-HA antibody overnight, protein A Sepharose 2 h at 4°C; blot anti-T7
[2] = target: Nlrp1b1_(1142–1233) (mouse) (UniProt Q2LKW6); assay: as above
pro-caspase-1-C284A-T7 = target: T1, pro-caspase-1-C284A-T7 (UniProt P29452); assay: co-IP; HA-tagged Nlrp1b1 fragments co-expressed with pro-caspase-1-C284A-T7 in HT1080 cells; EBC lysates; anti-T7 (control anti-GFP) antibody overnight, protein A Sepharose 2 h; blot anti-HA and anti-caspase-1 p10
T1 sequence: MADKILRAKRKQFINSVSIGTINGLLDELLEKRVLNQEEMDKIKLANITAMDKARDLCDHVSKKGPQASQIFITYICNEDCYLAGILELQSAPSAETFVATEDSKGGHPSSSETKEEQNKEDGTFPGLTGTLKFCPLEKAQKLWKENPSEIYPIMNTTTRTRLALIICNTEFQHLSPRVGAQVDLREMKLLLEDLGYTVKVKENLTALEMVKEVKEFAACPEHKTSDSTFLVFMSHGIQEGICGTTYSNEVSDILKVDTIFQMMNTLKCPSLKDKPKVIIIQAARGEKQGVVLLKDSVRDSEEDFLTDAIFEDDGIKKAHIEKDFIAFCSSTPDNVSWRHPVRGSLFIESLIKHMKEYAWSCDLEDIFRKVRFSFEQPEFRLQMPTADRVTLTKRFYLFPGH

[3] = target: T2, Nlrp1b1_(720–1233) (mouse) (UniProt Q2LKW6); assay: co-IP; T7- and HA-tagged Nlrp1b1_(720–1233) WT or V988D co-expressed with or without pro-caspase-1-C284A-FLAG (and pro-IL-1β-HA) in HT1080 cells; EBC lysates; anti-T7 antibody; blot anti-HA, anti-caspase-1 p10, anti-T7
T2 sequence: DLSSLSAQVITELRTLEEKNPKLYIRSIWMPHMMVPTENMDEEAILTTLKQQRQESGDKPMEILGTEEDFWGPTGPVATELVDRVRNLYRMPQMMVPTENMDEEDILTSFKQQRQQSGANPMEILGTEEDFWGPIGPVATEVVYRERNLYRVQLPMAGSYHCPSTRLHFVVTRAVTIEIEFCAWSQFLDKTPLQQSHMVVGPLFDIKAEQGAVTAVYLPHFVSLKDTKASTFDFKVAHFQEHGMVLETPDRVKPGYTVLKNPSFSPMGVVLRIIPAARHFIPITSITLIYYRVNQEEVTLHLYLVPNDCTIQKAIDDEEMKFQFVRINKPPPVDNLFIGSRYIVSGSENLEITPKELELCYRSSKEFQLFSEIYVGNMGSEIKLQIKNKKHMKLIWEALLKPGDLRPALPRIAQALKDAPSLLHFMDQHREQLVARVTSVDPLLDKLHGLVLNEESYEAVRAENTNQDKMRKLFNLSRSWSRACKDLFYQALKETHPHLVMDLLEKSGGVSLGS

[4] = target: T3, Nlrp1b1_(720–1233)-V988D (mouse) (UniProt Q2LKW6); assay: as above
T3 sequence: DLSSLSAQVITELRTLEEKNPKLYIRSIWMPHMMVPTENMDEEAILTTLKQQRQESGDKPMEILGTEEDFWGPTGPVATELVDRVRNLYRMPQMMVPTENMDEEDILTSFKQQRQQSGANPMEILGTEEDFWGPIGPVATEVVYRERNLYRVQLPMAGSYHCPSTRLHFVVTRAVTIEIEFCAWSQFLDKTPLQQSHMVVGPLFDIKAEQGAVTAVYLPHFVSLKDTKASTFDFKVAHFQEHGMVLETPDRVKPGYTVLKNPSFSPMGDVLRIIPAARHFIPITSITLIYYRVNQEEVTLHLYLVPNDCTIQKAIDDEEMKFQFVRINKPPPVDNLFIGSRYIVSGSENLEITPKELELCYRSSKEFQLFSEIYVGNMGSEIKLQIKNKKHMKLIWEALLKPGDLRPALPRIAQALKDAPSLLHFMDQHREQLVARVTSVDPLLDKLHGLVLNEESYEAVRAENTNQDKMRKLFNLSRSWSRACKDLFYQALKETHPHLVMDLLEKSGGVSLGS

[5] = target: T4, N-terminal cleavage product of Nlrp1b1 (TAP-tagged) (mouse) (UniProt Q2LKW6); assay: co-IP
T4 sequence: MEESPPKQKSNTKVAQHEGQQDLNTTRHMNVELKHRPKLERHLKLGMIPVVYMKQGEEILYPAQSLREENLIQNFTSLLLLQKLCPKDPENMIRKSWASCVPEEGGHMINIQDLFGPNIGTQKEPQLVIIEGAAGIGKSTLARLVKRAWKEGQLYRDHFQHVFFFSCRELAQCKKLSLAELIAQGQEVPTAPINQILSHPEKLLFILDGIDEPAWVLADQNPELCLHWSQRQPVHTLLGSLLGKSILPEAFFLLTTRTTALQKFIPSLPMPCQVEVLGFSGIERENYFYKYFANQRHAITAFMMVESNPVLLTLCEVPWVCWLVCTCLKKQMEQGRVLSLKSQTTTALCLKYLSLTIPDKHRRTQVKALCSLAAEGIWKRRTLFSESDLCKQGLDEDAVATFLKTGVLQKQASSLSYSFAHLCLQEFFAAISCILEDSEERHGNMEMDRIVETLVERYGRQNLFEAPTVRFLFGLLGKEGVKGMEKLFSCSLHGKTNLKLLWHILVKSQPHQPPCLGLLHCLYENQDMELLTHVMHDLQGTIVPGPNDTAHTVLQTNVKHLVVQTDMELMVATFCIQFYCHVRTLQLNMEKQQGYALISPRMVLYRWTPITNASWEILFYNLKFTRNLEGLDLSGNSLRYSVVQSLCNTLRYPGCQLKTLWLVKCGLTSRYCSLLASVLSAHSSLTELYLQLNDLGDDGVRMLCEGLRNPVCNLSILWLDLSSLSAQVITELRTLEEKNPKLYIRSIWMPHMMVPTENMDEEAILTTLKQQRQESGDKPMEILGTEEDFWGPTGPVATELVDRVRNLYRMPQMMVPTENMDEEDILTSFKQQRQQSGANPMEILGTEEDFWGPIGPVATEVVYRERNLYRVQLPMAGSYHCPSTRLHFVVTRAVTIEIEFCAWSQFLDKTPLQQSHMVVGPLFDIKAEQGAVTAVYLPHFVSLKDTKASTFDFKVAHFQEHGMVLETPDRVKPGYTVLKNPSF

[6] = target: Nlrp1b1_(1102–1233) (mouse) (UniProt Q2LKW6); assay: co-IP; HA- and T7-tagged copies co-expressed in HT1080 cells; lysed in EBC buffer (50 mM Tris pH 8, 150 mM NaCl, 0.5% NP-40) by sonication; anti-HA antibody overnight, protein A Sepharose 2 h at 4°C; blot anti-T7
[7] = target: Nlrp1b1_(1100–1233) (mouse) (UniProt Q2LKW6); assay: as above

binding [1]: binds
B1: Nlrp1b1_(1086–1233) (domain or fragment, UniProt Q2LKW6 1086-1233)
chain: FQLFSEIYVGNMGSEIKLQIKNKKHMKLIWEALLKPGDLRPALPRIAQALKDAPSLLHFMDQHREQLVARVTSVDPLLDKLHGLVLNEESYEAVRAENTNQDKMRKLFNLSRSWSRACKDLFYQALKETHPHLVMDLLEKSGGVSLGS

binding [2]: no binding | binding (pro-caspase-1-C284A-T7): no binding
B2: Nlrp1b1_(1142–1233) (domain or fragment, UniProt Q2LKW6 1142-1233)
chain: LHFMDQHREQLVARVTSVDPLLDKLHGLVLNEESYEAVRAENTNQDKMRKLFNLSRSWSRACKDLFYQALKETHPHLVMDLLEKSGGVSLGS

binding [3]: binds | binding [4]: binds
B3: pro-caspase-1-C284A-FLAG (enzyme, UniProt P29452 1-402)
chain: MADKILRAKRKQFINSVSIGTINGLLDELLEKRVLNQEEMDKIKLANITAMDKARDLCDHVSKKGPQASQIFITYICNEDCYLAGILELQSAPSAETFVATEDSKGGHPSSSETKEEQNKEDGTFPGLTGTLKFCPLEKAQKLWKENPSEIYPIMNTTTRTRLALIICNTEFQHLSPRVGAQVDLREMKLLLEDLGYTVKVKENLTALEMVKEVKEFAACPEHKTSDSTFLVFMSHGIQEGICGTTYSNEVSDILKVDTIFQMMNTLKCPSLKDKPKVIIIQAARGEKQGVVLLKDSVRDSEEDFLTDAIFEDDGIKKAHIEKDFIAFCSSTPDNVSWRHPVRGSLFIESLIKHMKEYAWSCDLEDIFRKVRFSFEQPEFRLQMPTADRVTLTKRFYLFPGH

binding [5]: binds
B4: C-terminal cleavage product of Nlrp1b1 (HA-tagged) (domain or fragment, UniProt Q2LKW6 984-1233)
chain: SPMGVVLRIIPAARHFIPITSITLIYYRVNQEEVTLHLYLVPNDCTIQKAIDDEEMKFQFVRINKPPPVDNLFIGSRYIVSGSENLEITPKELELCYRSSKEFQLFSEIYVGNMGSEIKLQIKNKKHMKLIWEALLKPGDLRPALPRIAQALKDAPSLLHFMDQHREQLVARVTSVDPLLDKLHGLVLNEESYEAVRAENTNQDKMRKLFNLSRSWSRACKDLFYQALKETHPHLVMDLLEKSGGVSLGS

binding [6]: no binding
B5: Nlrp1b1_(1102–1233) (domain or fragment, UniProt Q2LKW6 1102-1233)
chain: KLQIKNKKHMKLIWEALLKPGDLRPALPRIAQALKDAPSLLHFMDQHREQLVARVTSVDPLLDKLHGLVLNEESYEAVRAENTNQDKMRKLFNLSRSWSRACKDLFYQALKETHPHLVMDLLEKSGGVSLGS

binding [7]: binds | binding (pro-caspase-1-C284A-T7): binds
B6: Nlrp1b1_(1100–1233) (domain or fragment, UniProt Q2LKW6 1100-1233)
chain: EIKLQIKNKKHMKLIWEALLKPGDLRPALPRIAQALKDAPSLLHFMDQHREQLVARVTSVDPLLDKLHGLVLNEESYEAVRAENTNQDKMRKLFNLSRSWSRACKDLFYQALKETHPHLVMDLLEKSGGVSLGS

binding (pro-caspase-1-C284A-T7): binds
B7: Nlrp1b1_(1100–1233)-7A (domain or fragment, UniProt Q2LKW6 1100-1233)
chain: AAAAAAANKKHMKLIWEALLKPGDLRPALPRIAQALKDAPSLLHFMDQHREQLVARVTSVDPLLDKLHGLVLNEESYEAVRAENTNQDKMRKLFNLSRSWSRACKDLFYQALKETHPHLVMDLLEKSGGVSLGS

binding [3]: binds
B8: Nlrp1b1_(720–1233) (domain or fragment, UniProt Q2LKW6 720-1233)
chain: DLSSLSAQVITELRTLEEKNPKLYIRSIWMPHMMVPTENMDEEAILTTLKQQRQESGDKPMEILGTEEDFWGPTGPVATELVDRVRNLYRMPQMMVPTENMDEEDILTSFKQQRQQSGANPMEILGTEEDFWGPIGPVATEVVYRERNLYRVQLPMAGSYHCPSTRLHFVVTRAVTIEIEFCAWSQFLDKTPLQQSHMVVGPLFDIKAEQGAVTAVYLPHFVSLKDTKASTFDFKVAHFQEHGMVLETPDRVKPGYTVLKNPSFSPMGVVLRIIPAARHFIPITSITLIYYRVNQEEVTLHLYLVPNDCTIQKAIDDEEMKFQFVRINKPPPVDNLFIGSRYIVSGSENLEITPKELELCYRSSKEFQLFSEIYVGNMGSEIKLQIKNKKHMKLIWEALLKPGDLRPALPRIAQALKDAPSLLHFMDQHREQLVARVTSVDPLLDKLHGLVLNEESYEAVRAENTNQDKMRKLFNLSRSWSRACKDLFYQALKETHPHLVMDLLEKSGGVSLGS

binding [4]: binds
B9: Nlrp1b1_(720–1233)-V988D (domain or fragment, UniProt Q2LKW6 720-1233)
chain: DLSSLSAQVITELRTLEEKNPKLYIRSIWMPHMMVPTENMDEEAILTTLKQQRQESGDKPMEILGTEEDFWGPTGPVATELVDRVRNLYRMPQMMVPTENMDEEDILTSFKQQRQQSGANPMEILGTEEDFWGPIGPVATEVVYRERNLYRVQLPMAGSYHCPSTRLHFVVTRAVTIEIEFCAWSQFLDKTPLQQSHMVVGPLFDIKAEQGAVTAVYLPHFVSLKDTKASTFDFKVAHFQEHGMVLETPDRVKPGYTVLKNPSFSPMGDVLRIIPAARHFIPITSITLIYYRVNQEEVTLHLYLVPNDCTIQKAIDDEEMKFQFVRINKPPPVDNLFIGSRYIVSGSENLEITPKELELCYRSSKEFQLFSEIYVGNMGSEIKLQIKNKKHMKLIWEALLKPGDLRPALPRIAQALKDAPSLLHFMDQHREQLVARVTSVDPLLDKLHGLVLNEESYEAVRAENTNQDKMRKLFNLSRSWSRACKDLFYQALKETHPHLVMDLLEKSGGVSLGS
